# Data: publication PMC5766566, “Characterization of human small heat shock protein HSPB1 α-crystallin domain localized mutants associated with hereditary motor neuron diseases” (Scientific Reports, 2018)
# Target: the molecule itself
# Test: SEC-coupled SAXS; 80 μl at 5 mg/ml (220 µM monomer) on Shodex KW404-F in 50 mM phosphate pH 7.5, 100 mM NaCl, 2.5 mM DTT; number of subunits from the mass at the elution peak (I0 against water)
row,Protein,stoichiometry N
1,"human HSPB1 R127W mutant (natural protein, HSPB1 (HSP27), human, with the autosomal dominant Charcot-Marie-Tooth mutation R127W; Disease mutation found in patients; Probably the whole protein; SUMO carrier probably removed (subtractive IMAC); source: recombinant (pET23b or pETHSUK construct), expressed as described earlier) not shown",38 subunits
2,"human HSPB1 R136W mutant (natural protein, HSPB1 (HSP27), human, with the autosomal dominant Charcot-Marie-Tooth mutation R136W; Disease mutation found in patients; Probably the whole protein; SUMO carrier probably removed (subtractive IMAC); source: recombinant (pET23b or pETHSUK construct), expressed as described earlier; purified (ammonium sulfate fractionation, anion-exchange, SEC; or subtractive IMAC, anion-exchange, SEC)) not shown",41 subunits
3,"human HSPB1 S135F mutant (natural protein, HSPB1 (HSP27), human, with the autosomal dominant Charcot-Marie-Tooth mutation S135F; Disease mutation found in patients; Probably the whole protein; SUMO carrier probably removed (subtractive IMAC); The abstract once prints R135F for this mutant; source: recombinant (pET23b or pETHSUK construct), expressed as described earlier; purified (ammonium sulfate fractionation, anion-exchange, SEC; or …)) not shown",40 subunits

# Target: the molecule itself
# Test: SEC; Superdex 200 HR in buffer S; HSPB1 variants loaded at 0.7–1.0 mg/ml after phosphorylation by MAPKAPK-2 to 0.9–1.0 mole phosphate per mole of protein or above
row,Protein,stoichiometry N
1,"human HSPB1 R127W mutant, phosphorylated by MAPKAPK-2 (natural protein, phosphoserine at the MAPKAPK-2 sites S15, S78 and S82, to 0.9–1.0 mole phosphate per mole of protein or above, HSPB1 (HSP27), human, with the disease mutation R127W; also called phosphorylated R127W) not shown",2
2,"human HSPB1 S135F mutant, phosphorylated by MAPKAPK-2 (natural protein, phosphoserine at the MAPKAPK-2 sites S15, S78 and S82, to 0.9–1.0 mole phosphate per mole of protein or above, HSPB1 (HSP27), human, with the disease mutation S135F; also called phosphorylated S135F) not shown",2
3,"human HSPB1 R136W mutant, phosphorylated by MAPKAPK-2 (natural protein, phosphoserine at the MAPKAPK-2 sites S15, S78 and S82, to 0.9–1.0 mole phosphate per mole of protein or above, HSPB1 (HSP27), human, with the disease mutation R136W; also called phosphorylated R136W) not shown",2
